T1: UNK ZnF1-3 (human, UniProt Q9C0B0 31-174)
T1 sequence: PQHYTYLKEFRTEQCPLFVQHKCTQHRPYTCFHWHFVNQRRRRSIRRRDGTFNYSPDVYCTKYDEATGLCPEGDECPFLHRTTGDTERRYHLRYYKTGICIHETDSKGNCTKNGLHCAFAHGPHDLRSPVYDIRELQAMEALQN

B1: 32832707_32836631_14450_CDS_ENSG00000115760_ENST00000421745|human|control|control (ssRNA)
RNA: GGGAGUUCUACAGUCCGACGAUCGUGAGACAUAGUCCUGCCUACCCGCUUAUCACUGCUGUACUGCUGGAUAUCCGCAAUCCACUCCUCACAUUGGGCCAUUAUCUCAACUCUUUUCAAGUAAAAAUGUUUGUGUAUUACCUCCAACAGAGGAUUGAGCAUCA
B2: chr11:87044885:87044886:-_ENSMUSG00000046442_ENSMUST00000055438|mus_mus|motif|central (ssRNA)
RNA: GGGAGUUCUACAGUCCGACGAUCAGGACCAAUCAUCUCAACUGGUGGCAAAAAUUGGGUACUGUGAGGUUUGCUUGCUUCGGUUUGUGUGAGAUCUAGGUAGUCUGGAUCUUCCAGCACGUUGAUUUGGGGCCCUGGGCUGAGCAACAGAGGAUUGAGCAUCA
B3: 112041256_112114866_283_5pUTR_ENSG00000010810_ENST00000368667|human|control|control (ssRNA)
RNA: GGGAGUUCUACAGUCCGACGAUCUCUAAAUUCCAAAAUGUCCGCCAACGAUCACAAACUUUAUAUACACCACAUGUCUUCUACAACAGAGGCAGGACUGGUCCUUUGUGAAUUUCUGGGGCUCUUUAGAUCCCCCUCUGGAAUCAACAGAGGAUUGAGCAUCA
B4: chr16:15112699:15112700:+_ENSG00000179889_ENST00000396410|hu_hu|motif|central (ssRNA)
RNA: GGGAGUUCUACAGUCCGACGAUCCCACAGAGGCAGGGCACGGAGUUUGUCUGUGGGCUUAUUUGAUGUAAGACCAGCAACGGAAGUCAAGGCAGGGUCAUCGUGUUUAUACAGUGUCACCGCAGGAACAGCUGGCAAACCCAGCAACAGAGGAUUGAGCAUCA
B5: chr2:178096726:178096727:-_ENSG00000116044_ENST00000397062|hu_mus|FALSE|FALSE (ssRNA)
RNA: GGGAGUUCUACAGUCCGACGAUCCAGUGUGGCUUCUGGGCUGGGAACAGCGGUAGUAUCAGCCAGCUGCUUGUUUUCGGUAUUAAGACACUGUAAUUCGGGAAUGGAAAAUAGCUCCUGCCAAACUUGCUCCAUGUCCUGCUCCAACAGAGGAUUGAGCAUCA
B6: chr2:232320318:232320319:-_ENSG00000115053_ENST00000322723|hu_hu|hu_hu_hu_mus_True|28_38 (ssRNA)
RNA: GGGAGUUCUACAGUCCGACGAUCACUAUUAAAGUCUACAAAACCAAACCCUUUGGAAGAACCAGUUUCCCGAUCAGUGACUAUUCUUGCACGAACAGAGCCGUCAAAUGACUCCUUUAAGGUCUCUUCAGUGGUAUCCUCAGACAACAGAGGAUUGAGCAUCA
B7: 57771027_57777582_1111_CDS_ENSMUSG00000055720_ENSMUST00000163329|mouse|control|control (ssRNA)
RNA: GGGAGUUCUACAGUCCGACGAUCGCUUAGUUCGUCAUCCUGGAUGCCCAUGUCACGCAACUGCUGCAGCUGAGGCUGCCACUGGAUCUGAAGGCUGGGCUGCCCAGAGGCCUGCAGGGCAUGCUGGAGAGCUUGGCUAAAAAGCAACAGAGGAUUGAGCAUCA
B8: 42839324_42839525_1391_CDS_ENSG00000105429_ENST00000334370|human|control|control (ssRNA)
RNA: GGGAGUUCUACAGUCCGACGAUCCAGGUCCCAAGACUCCCAGGUGUUGGCGGAGAAGUUGUAUAGGACGAGGUCACCCAGGGCAUUGUUGAGGUCCUGGCCUCCGAAAACUGCCAGCAGCCCUGGUGGGGACAGGAAGGCGCCCAACAGAGGAUUGAGCAUCA
B9: chr1:244855233:244855234:+_ENSG00000121644_ENST00000302550|hu_mus|hu_hu_hu_mus_True|78_88 (ssRNA)
RNA: GGGAGUUCUACAGUCCGACGAUCCAUCAGAUGGUAGGCGUUGCCCUUGUAUUCUUUUCCCAGUUCUUCUACAAUUUUCUCUAUAUCAUCUUCUAGAAAGUCCGUACUUCCUAGAACAACAGCUUCUUUAAAUUUAAAUGUUUCCAACAGAGGAUUGAGCAUCA
B10: chr1:187193504:187193505:+_ENSMUSG00000026615_ENSMUST00000046514|mus_hu|FALSE|FALSE (ssRNA)
RNA: GGGAGUUCUACAGUCCGACGAUCAUCAAUCUCAGUAUGUUCCAUCAGAUUAGAGCCAUAUAACCCAGCUGUAGUUGCAACUCUAGCCAAGUAGCGAAGUAUAGAAUUCACAUCUGUGAAUAUCACAUUUUCAGAAACAUGAAGCAACAGAGGAUUGAGCAUCA
B11: chr8:104433209:104433210:+_ENSG00000164934_ENST00000297579|hu_mus|FALSE|FALSE (ssRNA)
RNA: GGGAGUUCUACAGUCCGACGAUCAAAACCUUCAUGUGCUUGUAUUGUUCGGAUACAUUUUCGUUUAGUCAGAUUCCAAAUUUUAACCUCUCCAUCACAUGCCCCAGAAAGGACAGAAGCCAGGCUCUUUGGAUGCUUUGCCAGCAACAGAGGAUUGAGCAUCA
B12: 171544185_171546610_7175_CDS_ENSG00000117523_ENST00000367742|human|control|control (ssRNA)
RNA: GGGAGUUCUACAGUCCGACGAUCUUUUGUGCUCAAAGAAGAGGUAGUGUAUGUACCAGCUCCUGAUAGUGAUGCUGUAGGAGUGACUGAAGCAACAGGAAUCUGGGGCAUGGAUGCACUUGAGAACGAAUUGUAAUUAGCAGUCAACAGAGGAUUGAGCAUCA
B13: chr3:119242560:119242561:+_ENSG00000113845_ENST00000264244|hu_hu|motif|central (ssRNA)
RNA: GGGAGUUCUACAGUCCGACGAUCUCAGCUCUCCAGUGAGUUUCAAGUUCAGAGCACUUUCAGUCCUUGUCUUGUUUAUCGGUUACUGAAGGGUUUCUAGGAAGGUUUAGCAGUGCUUCAAUUUUCUUAGCAUCAUUCUCAGGUCAACAGAGGAUUGAGCAUCA
B14: chrX:55033037:55033038:+_ENSG00000169188_ENST00000374987|hu_hu|FALSE|FALSE (ssRNA)
RNA: GGGAGUUCUACAGUCCGACGAUCAGUGACUGCUGACCAGCAGGUGAAGGCCCCCUCCUGCUUUGGUUGGAAGCAGCGGUAGCUAUCGAUGAAGGGCCCUACAUGAGAGGCAGACUGGCACCCCAAGUUACUGAGCAAGCUGUCCAACAGAGGAUUGAGCAUCA
B15: 109746028_109746148_1226_CDS_ENSMUSG00000025529_ENSMUST00000071814|mouse|control|control (ssRNA)
RNA: GGGAGUUCUACAGUCCGACGAUCAGUUGUGAAAUCACAAUCUGUACACUGGUACUUCUUUCUCAUCAAAUGAUCGGGAUGAUUCUUCAUGUGUCUUUUUAAGAAUCCCCUGGAUUUAAACUUUUUUGUGCAAAUAUGGCAAGGCAACAGAGGAUUGAGCAUCA
B16: 150068528_150068648_336_CDS_ENSG00000214022_ENST00000425389|human|control|control (ssRNA)
RNA: GGGAGUUCUACAGUCCGACGAUCGACCUGGCGGUGCAGUGCUAAGAAGGGGGCAUGGCGAAAGCGACGGCCACACUCAGGGCAGGGCAAGGGCAGCCGGGCCUGGCACCGGCGGGUGUGAAGCCACAGAGCCACCCAGCCAGGCAACAGAGGAUUGAGCAUCA
B17: chr1:163117127:163117128:-_ENSG00000143248_ENST00000313961|hu_mus|hu_hu_hu_mus_False|1_78 (ssRNA)
RNA: GGGAGUUCUACAGUCCGACGAUCUGCUACAAAGGAUGUAACUCAACUCACAGGGCAUGAUUUCAUAGCCUGACCAGAUGACUACUUGAUUAGCUCCUUAUAAAAUUCAGAGCGCACAAAGCGGGGCAGAGAAUCCUUUUCCAUCAACAGAGGAUUGAGCAUCA
B18: chr6:38652254:38652255:-_ENSG00000124767_ENST00000373365|hu_hu|hu_hu_hu_mus_False|8_78 (ssRNA)
RNA: GGGAGUUCUACAGUCCGACGAUCCGAGAACUUCAUAGCAGGGAAGUCAAGCUUCUGGAUUAGCGUCAGUCCAAGAACCCUCGUAUAAAAAUCCAGGGACUUCUUAGGAUCCUUAAUUCUUAGCAUCGUCUGCUGCAGUAGAAACAACAGAGGAUUGAGCAUCA
B19: chr2:104430793:104430794:+_ENSMUSG00000027176_ENSMUST00000028599|mus_hu|motif|central (ssRNA)
RNA: GGGAGUUCUACAGUCCGACGAUCCGUCUCCUGACAUGGCCUCAGCUGAUUACAACGUGCGCACUGACCGUCGAUGGGAAGCGGGAAAAGAAAAAUUAAACUAAAAACCACCCCCAAAUCAGUAAAGUUACCCCCUGCCCAGCUCAACAGAGGAUUGAGCAUCA
B20: 117521585_117542866_2093_CDS_ENSMUSG00000038371_ENSMUST00000164759|mouse|control|control (ssRNA)
RNA: GGGAGUUCUACAGUCCGACGAUCUGUCCAAAUGGGGUGGUCCUGUACACAGGUGUAGGCAAACUGGCUGACUCCAGGGGCAAGUUUCCUAUAGAAAGCACUGGUCAGGGGGAGUAAUGCUGCAGCGAUGUUAUAUUCUUCUAACAACAGAGGAUUGAGCAUCA
B21: chr14:76906223:76906224:+_ENSMUSG00000022010_ENSMUST00000022587|mus_mus|motif|central (ssRNA)
RNA: GGGAGUUCUACAGUCCGACGAUCCACUUCCUCCCUCACCGCAUACAUCAAAUGGCUUUUCACCAGAUCCAUAGCUUGCUCGGUUUUGUUGUCGAUAGCUACCACACUUGCACCAGAGCUAUUGUCAAGUCUCACGGAAGCGUUCAACAGAGGAUUGAGCAUCA
B22: chr2:99204607:99204608:+_ENSG00000040933_ENST00000545415|hu_hu|motif|central (ssRNA)
RNA: GGGAGUUCUACAGUCCGACGAUCGGUAGUGUAGAUAGGAUAAUUCACUAGAACCCGUUAUUCUCACUGCAUGAGAUAGUGCGGGCUUCUUUCCCCAAAUAACAUUUAUUGGUAUGCCUAGGAUCCAAUUAUUUAAUUUAUUAUCAACAGAGGAUUGAGCAUCA

Some of the results follow.

This test concerns the target T1, UNK ZnF1-3. In words: nsRBNS (natural sequence RNA bind-n-seq); RBNS binding buffer (assumed for nsRBNS): 25 mM Tris pH 7.5, 150 mM KCl, 3 mM MgCl2, 0.01% Triton X-100, 500 ug/ml BSA, 20 U/ml SUPERase-In, 4 C; UNK is unkempt and MSI1 is Musashi-1; names of the RNAs are library labels; protein concentration not given here; high values mean tight binding.
B1 came in with a binding signal of 0.91 enrichment R.
Under B2 stands 1.61 enrichment R; under B3, 1.32 enrichment R; under B4, 1.28 enrichment R.
Under B5 stands 0.979 enrichment R; under B6, 0.755 enrichment R.
As for B7, the figure is 0.77 enrichment R.
As to B8, the binding signal was found to be 1.2 enrichment R.
As for B9, the figure is 1.35 enrichment R; as for B10, 1.25 enrichment R.
Molecule B11 registered a binding signal of 0.907 enrichment R.
Molecule B12 had a binding signal of 1.12 enrichment R.
Under B13 stands 0.614 enrichment R.
As for B14, the figure is 1.22 enrichment R; as for B15, 0.437 enrichment R; as for B16, 1.08 enrichment R.
Under B17 stands 1.12 enrichment R.
In turn, B18 registered a binding signal of 1.21 enrichment R.
Under B19 stands 2.21 enrichment R; under B20, 1.17 enrichment R.
As for B21, the figure is 1.02 enrichment R; as for B22, 0.961 enrichment R.

The values are drawn from PMC12136788.
